According to PubChem BioAssay AID1476 (National Center for Advancing Translational Sciences (NCATS), 2009):
Where “and” joins values, the source holds several entries; their conditions need not be identical. Equal values may be shown once. The whole screen tested about 200,000 compounds, of which about 4,500 (2.2%) were called active. This list was built around the results that the source calls inconclusive (neither active nor inactive); the mix of calls is not that of the screen. Calls come from the whole dose curve; as a rule, active = well fitted inhibition curve with a large enough effect; inconclusive = small, poorly fitted or top-dose-only effect, or effect the other way; inactive = flat fitted curve, though single readings scatter. Potencies beside an inconclusive call are fits to weak or partial responses and may not hold up.
Note: nearly all actives have a fitted effect of over 40% in size.
Potency is the fitted concentration of half-maximal effect; tags give direction and shape of the fitted curve.
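Throughout, for max response, negative = inhibition: plate controls were enzyme without inhibitor for no effect and buffer without enzyme for full effect.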

The compounds below were run against Cruzipain (Trypanosoma cruzi) (UniProt P25779) (assay: qHTS Assay for Promiscuous and Specific Inhibitors of Cruzain (without detergent)). Details: purified cruzain, Z-FR-AMC fluorescence, no detergent.
Sequence of UniProt P25779 (P25779 whole entry, looked up): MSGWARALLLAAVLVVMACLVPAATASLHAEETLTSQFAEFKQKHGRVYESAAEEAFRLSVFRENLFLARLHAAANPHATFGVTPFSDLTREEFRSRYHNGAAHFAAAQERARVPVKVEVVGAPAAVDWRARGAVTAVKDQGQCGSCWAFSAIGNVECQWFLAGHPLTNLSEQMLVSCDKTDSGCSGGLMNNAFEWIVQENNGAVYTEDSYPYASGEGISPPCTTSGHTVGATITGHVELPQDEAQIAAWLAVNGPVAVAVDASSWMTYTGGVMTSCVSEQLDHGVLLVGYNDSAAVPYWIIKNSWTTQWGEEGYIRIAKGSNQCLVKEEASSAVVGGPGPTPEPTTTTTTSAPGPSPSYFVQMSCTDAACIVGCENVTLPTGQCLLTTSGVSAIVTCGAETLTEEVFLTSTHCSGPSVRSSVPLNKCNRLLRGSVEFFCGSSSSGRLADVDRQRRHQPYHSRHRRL
In short: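 Detergent-free condition (0.00005% Triton X-100) in acetate buffer pH 5.5 with DTT. 1.5 nM enzyme and compound were pre-mixed 15 min, then 2 uM Z-FR-AMC substrate added; reaction progress from fluorescence change between first and third reads (60 s).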
In the case of O=[N+]([O-])c1ccc(S(=O)(=O)N2CCn3cccc3C2c2ccc(Br)cc2)cc1 (stereo unspecified), the Potency is reported as inconclusive: 31.6 µM [inhibitor, single point]. Cc1ccccc1CNC(=O)C1CCCCN1S(=O)(=O)c1ccc(F)cc1 (stereo unspecified) was tested, and the max response, negative = inhibition was inactive: -11.2%. In the case of Cc1csc(NC(=O)CSc2nnc(C)s2)n1, the max response, negative = inhibition is reported as inactive: -11.4%. With O=C(Cn1ncc2c3ccccc3n(Cc3ccccc3)c2c1=O)NCc1ccccn1 the max response, negative = inhibition was inactive: 20.3%. COc1ccc(Nc2ncc3c(n2)CCN(Cc2sccc2C)C3)c(OC)c1 was tested, and the max response, negative = inhibition was inactive: -6.18%. In the case of Cc1[nH]nc(N=CC2=C(O)CC(c3ccco3)CC2=O)c1-c1ccc(Cl)cc1 (stereo unspecified), the Potency is reported as inconclusive: 25.1 µM [activator, single point]. With N#Cc1ccc(-c2csc(NC(=O)c3ccc(S(=O)(=O)N4CCc5ccccc5C4)cc3)n2)cc1 the Potency was active: 6.31 µM. In the case of CC(C)(C)n1nc2c(c1NC(=O)COc1ccc(Cl)cc1)CSC2, the Potency is reported as inconclusive: 25.1 µM [inhibitor, single point]. CCCCn1c(SCc2nc3ccccc3s2)nc2ccccc2c1=O was tested, and the max response, negative = inhibition was inactive: -3.4%. In the case of COc1ccc2[nH]c3c(NCCN4CCCCC4)ncnc3c2c1, the Potency is reported as active: 12.6 µM. For C=CCn1c(SCc2csc(C)n2)nc2sc3c(c2c1=O)CCCC3, the Potency was inconclusive: 25.1 µM [activator, single point]. CCOc1ccccc1NC(=S)NC(=O)CCCOc1ccc(Cl)cc1Cl was tested, and the Potency was active: 20 µM. CCN(CC)c1ccc(/C=N/N2C(=O)c3ccccc3C2=O)c(O)c1 was tested, and the Potency was inconclusive: 25.1 µM [inhibitor, single point]. For COC(=O)C1=C(C)N(CCc2ccc(OC)c(OC)c2)C(=O)/C1=C\N(C)C, the Potency was inconclusive: 39.8 µM [activator, single point]. In the case of CCN(CC)S(=O)(=O)c1cc(-c2ccc(=O)n(C(C)C(=O)Nc3cccc(C#N)c3)n2)ccc1C (stereo unspecified), the Potency is reported as inconclusive: 39.8 µM [activator, single point]. For Cc1cc(C)cc(N(CC(=O)Nc2c(C)cc(C)cc2C)S(=O)(=O)c2c(C)nn(C)c2C)c1, the Potency was inconclusive: 31.6 µM [activator, partial curve]. Cc1c(Cc2ccccc2)sc(/N=C/c2ccc3ccccc3c2)c1C(N)=O was tested, and the Potency was active: 6.31 µM. With COc1cc(/C=C/c2ccc3cccc(OC)c3n2)c(OC(C)=O)c([N+](=O)[O-])c1 the Potency was inconclusive: 31.6 µM [activator, partial curve]. With CCOC(=O)c1[nH]c2c(c1Cc1ccccc1)C(=O)CC(c1ccc(C(C)(C)C)cc1)C2 (stereo unspecified) the Potency was active: 10 µM. With O=C(CNC(=O)c1ccccc1F)N/N=C/c1cc(Br)ccc1OC(=O)/C=C/c1ccco1 the Potency was inconclusive: 39.8 µM [inhibitor, single point]. With Cc1ccc(-c2nc3ccccc3[nH]2)cc1NC(=O)c1sc2cc(Cl)ccc2c1Cl the Potency was active: 7.94 µM. For Cc1cc(C)n(-c2nc(Nc3ccccc3)nc(-n3nc(C)cc3C)n2)n1, the Potency was inconclusive: 20 µM [inhibitor, partial curve]. In the case of CCCCC/C=C\C[C@@H](O)/C=C/C=C/C=C\[C@@H](O)CCCC(=O)O, the max response, negative = inhibition is reported as inactive: -5% and inactive: 6.77%. CN(c1ccccc1)S(=O)(=O)c1ccc(Cl)c(C(=O)NCCc2c[nH]c3ccccc23)c1 was tested, and the Potency was inconclusive: 39.8 µM [inhibitor, single point]. N#CCSc1nc2cc(C(=O)N3CCC(C(N)=O)CC3)ccc2c2nc3ccccc3n12 was tested, and the Potency was inconclusive: 39.8 µM [activator, single point]. In the case of C=CCn1c(SCc2nc3scc(-c4ccccc4)c3c(=O)[nH]2)nnc1-c1ccccc1F, the Potency is reported as inconclusive: 10 µM [inhibitor, partial curve]. O=C(Nc1nnc(CC(c2ccccc2)c2ccccc2)s1)c1ccco1 was tested, and the Potency was inconclusive: 39.8 µM [inhibitor, single point]. With O=C(Cn1c(=O)n(Cc2nc(-c3ccccc3)no2)c(=O)c2cc3c(cc21)OCO3)Nc1cccc(C(F)(F)F)c1 the Potency was active: 5.01 µM. Cc1ccc(-c2nc(CS(=O)(=O)CC(=O)NC3CCCCC3C)c(C)o2)cc1 (stereo unspecified) was tested, and the max response, negative = inhibition was inactive: 2.02%. CCCc1cc(=O)n2c([nH]c3ccccc32)c1C#N was tested, and the Potency was inconclusive: 20 µM [activator, single point]. CCOc1cc(/C=N/Nc2nc(-c3cccc(S(=O)(=O)N4CCCC4)c3)cs2)ccc1O was tested, and the Potency was active: 15.8 µM. Cc1cccc(C)c1NC(=O)COC(=O)c1ccccc1Nc1ccccc1 was tested, and the Potency was inconclusive: 31.6 µM [inhibitor, single point]. CCOc1ncnc2c1oc1nc(CC(C)C)c3c(c12)CC(C)(C)OC3 was tested, and the Potency was inconclusive: 31.6 µM [activator, single point]. O=C1C2C3C=CC(C3=C(c3ccccc3)c3ccccc3)C2C(=O)N1Cc1ccccc1 (stereo unspecified) was tested, and the Potency was active: 20 µM. For Cn1c(C(=O)NCCc2ccsc2)cc2c(=O)n(C)c3ccccc3c21, the Potency was inconclusive: 39.8 µM [activator, single point]. O=C(Nc1nnc(SCc2ccc(Cl)cc2Cl)s1)C1COc2ccccc2O1 (stereo unspecified) was tested, and the Potency was inconclusive: 39.8 µM [inhibitor, single point]. For COc1cc2c(cc1C(F)(F)F)N(C(=O)Nc1cc(F)cc(-c3cccnc3)c1)CC2, the Potency was inconclusive: 6.31 µM [activator, full curve] and inconclusive: 3.98 µM [activator, full curve]. For COc1cc(NS(=O)(=O)c2ccc(NC(=S)NC(=O)c3sc4ccccc4c3Cl)cc2)ncn1, the Potency was inconclusive: 39.8 µM [inhibitor, single point]. CC(O)COC(C)(C)C (stereo unspecified) was tested, and the max response, negative = inhibition was inactive: -2.68%. For COc1ccc(Oc2ncc3ncc(=O)n(C4CC4)c3n2)cc1, the max response, negative = inhibition was inactive: -11.2%. For Cc1cccc(NC(=O)c2oc3ccc(S(=O)(=O)N4CCC5(CC4)OCCO5)cc3c2C)c1C, the Potency was inconclusive: 39.8 µM [activator, single point]. For Cc1ccc([S+](=O)([O-])N(c2ccccc2)[S+](=O)([O-])C(F)(F)F)cc1, the max response, negative = inhibition was inactive: -13.5%. C=CCCC(=O)Nc1nc(C)c(-c2csc(Nc3cc(Cl)ccc3OC)n2)s1 was tested, and the Potency was active: 15.8 µM. COc1ccc(C(=O)Nc2ccc3oc(Cc4ccc(Cl)cc4)nc3c2)cc1OC was tested, and the Potency was inconclusive: 31.6 µM [activator, single point]. C=CCn1c(N)c(C(=O)Nc2cccc(C)c2)c2nc3ccccc3nc21 was tested, and the Potency was inconclusive: 39.8 µM [activator, single point]. For Cc1ccc(NC(=O)CN2C(=O)S/C(=C\C(=O)Nc3ccc(Cl)cc3)C2=O)cc1, the Potency was active: 10 µM. In the case of CC(=O)c1cccc(Nc2ccc3cc(S(=O)(=O)N4CCCC4)ccc3n2)c1, the Potency is reported as active: 12.6 µM. CCCNC(=O)c1c(N)n(-c2cc(OC)cc(OC)c2)c2nc3ccccc3nc12 was tested, and the Potency was inconclusive: 25.1 µM [activator, partial curve]. For CCCn1c(=NC(=O)c2c(-c3c(F)cccc3Cl)noc2C)c(C(=O)OCC)cc2c(=O)n3ccccc3nc21, the Potency was inconclusive: 7.94 µM [activator, full curve]. For CCOC(=O)c1cc(S(=O)(=O)Nc2ccccc2OCC)[nH]n1, the max response, negative = inhibition was inactive: 16.5%. With C1=C(CCNc2ncnc3c2[nH]c2ccccc23)CCCC1 the max response, negative = inhibition was inactive: -23.4%. For N/C(=N/O)c1nc(N2CCCC2)nc(N(c2ccccc2)c2ccccc2)n1, the max response, negative = inhibition was inactive: -2.47%. O=C(CSC1=NCCN1)C1COc2ccccc2O1 (stereo unspecified) was tested, and the Potency was active: 1.26 µM. With CN(C)c1ccc(/C=C2\SC(=S)N(Nc3ncc(C(F)(F)F)cc3Cl)C2=O)cc1 the Potency was active: 12.6 µM. With COc1ccccc1CNc1nc(-c2cccc(NS(C)(=O)=O)c2)nc2ccccc12 the Potency was inconclusive: 39.8 µM [inhibitor, single point]. For COc1ccccc1C(=O)NNC(=S)NC(=O)c1sc2ccccc2c1Cl, the Potency was active: 10 µM. Cc1nn(-c2nnc(NCc3ccccc3)nn2)c(C)c1Br was tested, and the Potency was inconclusive: 7.94 µM [inhibitor, full curve, poor fit]. For Brc1ccc(-c2nnc(-c3ccccc3)c(N3CCSCC3)n2)cc1, the Potency was inconclusive: 25.1 µM [inhibitor, single point]. CCOC(=O)CS(=O)(=O)c1nc(-c2ccc(F)cc2)cc(C(F)(F)F)n1 was tested, and the Potency was inconclusive: 39.8 µM [activator, single point]. For CCc1nn(Cc2c(C)cc(C)cc2C)c(=O)c2cc3cc(C)ccc3n12, the max response, negative = inhibition was inactive: -3.02%. For COc1ccc(-c2nc(C#N)c(N3CCOCC3)o2)cc1OC, the Potency was inconclusive: 20 µM [activator, partial curve]. COCCNC(=O)CSc1nc(-c2ccc(OC)c(OC)c2)cc(C(F)(F)F)n1 was tested, and the Potency was inconclusive: 20 µM [activator, partial curve, poor fit]. In the case of COC(=O)[C@@]1(Cc2ccc(OC)cc2)[C@H]2c3cc(C(=O)N(C)C)n(Cc4ccccn4)c3C[C@H]2CN1C(=O)c1ccccc1, the Potency is reported as inconclusive: 20 µM [activator, partial curve]. In the case of COC(=O)c1ccc(C(NC(=O)OCc2ccccc2)/C(F)=C/[C@@H](C)C(=O)Nc2ccc(OC)cc2)cc1 (stereo partly specified), the Potency is reported as inconclusive: 39.8 µM [inhibitor, single point]. With Cc1nc2ccc(S(=O)(=O)Nc3cc(-c4nc5cccnc5s4)ccc3C)cc2s1 the Potency was inconclusive: 39.8 µM [activator, single point]. Cc1ccc(C2C=C(c3ccc(Cl)cc3)Nc3nc(NC(=O)c4ccco4)nn32)cc1 (stereo unspecified) was tested, and the max response, negative = inhibition was inactive: 1.91%.
